Whole data set: some 18,000 sequences, median “TetR repression strength (sort-seq, GFP reporter)” near 0.23, cut for the highest 2% near 0.68. The list shows a part of the results.

The target in this assay is TetR (class B, Tn10) (UniProt P04483). Put plainly: TetR repression strength (sort-seq, GFP reporter) (relative to tetO2 = 1); higher = stronger repression. The conditions noted are these: E. coli. Put shortly: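 Repression strength is the top bin index plus one minus the read-weighted mean bin, relative to the unaltered operator's value. A low-copy library in E. coli SIG10-MAX randomized eight operator positions between a constitutive promoter and sfGFP, with TetR expressed constitutively; cells grew 5 h at 37 °C in LB with 50 µg/mL chloramphenicol and 10^6 were FACS-sorted into 13 bins that were each Illumina-sequenced. Three independent transformations were averaged, keeping only members with ≥30 reads in all replicates and CV ≤0.5.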
UniProt P04483, sequence (P04483 whole entry): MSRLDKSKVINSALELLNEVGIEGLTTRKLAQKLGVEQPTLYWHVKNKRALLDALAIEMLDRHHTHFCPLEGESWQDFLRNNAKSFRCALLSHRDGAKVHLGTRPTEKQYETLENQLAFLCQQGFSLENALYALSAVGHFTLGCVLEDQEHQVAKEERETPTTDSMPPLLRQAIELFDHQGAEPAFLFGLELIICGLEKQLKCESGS
With TCCCTAGGAGTAAAGGAGA, the TetR repression strength was determined as 0.244.

Sequence TCCCGTACAGTGTATGAGA came in with a TetR repression strength of 0.062.

As for TCCCTGTAAGTTATAGAGA, the TetR repression strength was 0.375.

The sequence TCCCTCTTAGTTTGCGAGA gave a TetR repression strength of 0.796.

TCCCGCCAAGTGGGTGAGA registered a TetR repression strength of 0.292.

Sequence TCCCATTCAGTTGAGGAGA displayed a TetR repression strength of 0.373.

In turn, TCCCTACTAGTTTCTGAGA yielded a TetR repression strength of 0.203.

For the sequence TCCCTGGTAGTTGTTGAGA, the TetR repression strength came out at 0.336.

TCCCTGGTAGTTGTGGAGA yielded a TetR repression strength of 0.207.

With TCCCTGGTAGTAGGGGAGA, the TetR repression strength turned out to be 0.257.

As for TCCCAGATAGTGTGTGAGA, the TetR repression strength came to 0.0799.

For TCCCACCCAGTACCTGAGA, the TetR repression strength came to 0.242.

As to TCCCTTGAAGTTATGGAGA, the TetR repression strength turned out to be 0.346.

Sequence TCCCCGGCAGTCCATGAGA returned a TetR repression strength of 0.164.

For the sequence TCCCTTCGAGTGCCAGAGA, the TetR repression strength is 0.275.

As to TCCCCGTAAGTCGGTGAGA, the TetR repression strength amounted to 0.0631.

TCCCCATTAGTTCATGAGA registered a TetR repression strength of 0.17.

The sequence TCCCAGGCAGTTGCGGAGA displayed a TetR repression strength of 0.239.

TCCCTGCGAGTAGCAGAGA displayed a TetR repression strength of 0.323.

Sequence TCCCGTGTAGTCACTGAGA displayed a TetR repression strength of 0.207.

Consider TCCCTTTCAGTAATCGAGA, for which the TetR repression strength was determined as 0.512.

For the sequence TCCCCGCCAGTTCACGAGA, the TetR repression strength turned out to be 0.207.

Sequence TCCCGGCGAGTGACTGAGA registered a TetR repression strength of 0.299.

TCCCAGATAGTCAGCGAGA came in with a TetR repression strength of 0.131.

As for TCCCCTGTAGTGCATGAGA, the TetR repression strength was 0.448.

TCCCTGTTAGTAGCTGAGA registered a TetR repression strength of 0.188.

For TCCCACGCAGTACTAGAGA, the TetR repression strength stood at 0.395.

Turning to TCCCCGTTAGTTGACGAGA, the TetR repression strength stood at 0.23.

For the sequence TCCCTGTGAGTTTAAGAGA, the TetR repression strength was found to be 0.506.

Regarding TCCCTTCTAGTCTCTGAGA, the TetR repression strength turned out to be 0.487.

Sequence TCCCCATCAGTAGACGAGA yielded a TetR repression strength of 0.299.

TCCCTCGGAGTAACAGAGA yielded a TetR repression strength of 0.219.

The sequence TCCCGCCTAGTGGACGAGA had a TetR repression strength of 0.27.

Turning to TCCCGAGGAGTATCAGAGA, the TetR repression strength was determined as 0.293.

The sequence TCCCACGTAGTTCTAGAGA gave a TetR repression strength of 0.299.

Turning to TCCCGGAGAGTGGTTGAGA, the TetR repression strength came to 0.157.

Take TCCCAGGGAGTAATCGAGA: the TetR repression strength was 0.283.

TCCCCGGTAGTGGTCGAGA had a TetR repression strength of 0.315.

TCCCTTGGAGTATATGAGA: the TetR repression strength came out at 0.119.

The sequence TCCCGAAAAGTGCGTGAGA came in with a TetR repression strength of 0.126.

TCCCGTGAAGTTTGCGAGA gave a TetR repression strength of 0.0551.

In turn, TCCCAAACAGTTAAAGAGA registered a TetR repression strength of 0.347.

Sequence TCCCTGGCAGTTAGGGAGA displayed a TetR repression strength of 0.365.

For TCCCAAGTAGTACGGGAGA, the TetR repression strength came out at 0.201.

For the sequence TCCCTTAAAGTGCTCGAGA, the TetR repression strength came to 0.747.

In turn, TCCCGCGCAGTGTGAGAGA had a TetR repression strength of 0.191.

Sequence TCCCGACCAGTTGAAGAGA came in with a TetR repression strength of 0.159.

The sequence TCCCCTGGAGTGGCTGAGA registered a TetR repression strength of 0.313.

Take TCCCGACTAGTGCCTGAGA: the TetR repression strength is 0.521.

Sequence TCCCGGCAAGTCGAGGAGA gave a TetR repression strength of 0.191.

In turn, TCCCATGGAGTCGGGGAGA came in with a TetR repression strength of 0.261.

In the case of TCCCTGATAGTTTAGGAGA, the TetR repression strength turned out to be 0.478.

Sequence TCCCGTGAAGTTGAGGAGA showed a TetR repression strength of 0.193.

With TCCCAGACAGTGTCAGAGA, the TetR repression strength is 0.134.

Turning to TCCCCAGTAGTAGGGGAGA, the TetR repression strength stood at 0.224.

Regarding TCCCTTGGAGTTGGCGAGA, the TetR repression strength was 0.423.

TCCCCTAGAGTTGCGGAGA: the TetR repression strength came to 0.326.

The sequence TCCCAGGAAGTTTATGAGA displayed a TetR repression strength of 0.255.

TCCCCTTGAGTATGGGAGA returned a TetR repression strength of 0.288.

As for TCCCATCCAGTGGATGAGA, the TetR repression strength is 0.399.

The sequence TCCCAATAAGTCGACGAGA displayed a TetR repression strength of 0.0319.

As for TCCCTACAAGTGTGGGAGA, the TetR repression strength turned out to be 0.147.

On to TCCCGTGAAGTATGGGAGA, for which the TetR repression strength was found to be 0.138.

With TCCCTGTCAGTTCTGGAGA, the TetR repression strength stood at 0.326.

For TCCCTCAGAGTGGGAGAGA, the TetR repression strength came out at 0.271.

In turn, TCCCGTTTAGTGCGGGAGA had a TetR repression strength of 0.252.

Regarding TCCCTGCCAGTTTCCGAGA, the TetR repression strength was 0.207.

As for TCCCTTTGAGTAACTGAGA, the TetR repression strength is 0.214.

TCCCGTTGAGTGCCTGAGA returned a TetR repression strength of 0.23.

TCCCTTGTAGTTGTGGAGA: the TetR repression strength is 0.229.

On to TCCCTGTGAGTAAGGGAGA, for which the TetR repression strength came to 0.212.

Sequence TCCCGGACAGTCAGTGAGA gave a TetR repression strength of 0.191.

The sequence TCCCCCGGAGTGAGGGAGA came in with a TetR repression strength of 0.117.

TCCCGCGAAGTGAAGGAGA showed a TetR repression strength of 0.138.

Turning to TCCCGTTTAGTGGTAGAGA, the TetR repression strength came to 0.166.

In the case of TCCCTCATAGTAAGAGAGA, the TetR repression strength is 0.291.

In turn, TCCCTTCCAGTACGAGAGA registered a TetR repression strength of 0.217.

TCCCCGACAGTGGCAGAGA showed a TetR repression strength of 0.221.

Sequence TCCCCCGCAGTCACGGAGA gave a TetR repression strength of 0.234.

For TCCCGCAGAGTCCGTGAGA, the TetR repression strength was found to be 0.18.

TCCCTATTAGTGCTGGAGA: the TetR repression strength came to 0.314.

With TCCCACGCAGTGGACGAGA, the TetR repression strength amounted to 0.182.

Consider TCCCCGTCAGTCATAGAGA, for which the TetR repression strength was 0.447.

Sequence TCCCCCAGAGTTTGGGAGA returned a TetR repression strength of 0.132.

The sequence TCCCTGGGAGTGGCAGAGA yielded a TetR repression strength of 0.223.

TCCCAGTGAGTGATGGAGA came in with a TetR repression strength of 0.138.

Sequence TCCCATATAGTTGTGGAGA yielded a TetR repression strength of 0.105.

TCCCCGGTAGTGTCTGAGA registered a TetR repression strength of 0.225.

With TCCCGGCTAGTTGCTGAGA, the TetR repression strength came to 0.144.

TCCCCACCAGTACCGGAGA displayed a TetR repression strength of 0.235.

On to TCCCATAGAGTCGCCGAGA, for which the TetR repression strength was determined as 0.321.

Consider TCCCTGCGAGTGGCAGAGA, for which the TetR repression strength was 0.126.

In turn, TCCCTAAGAGTGGGGGAGA displayed a TetR repression strength of 0.198.

Turning to TCCCATGTAGTACATGAGA, the TetR repression strength was determined as 0.0597.

For TCCCGCGCAGTTGTGGAGA, the TetR repression strength is 0.139.

As to TCCCATACAGTCGTCGAGA, the TetR repression strength was 0.177.

Sequence TCCCTGGCAGTGCCCGAGA showed a TetR repression strength of 0.314.

In the case of TCCCCATTAGTACACGAGA, the TetR repression strength came out at 0.186.

TCCCTGTAAGTGTGGGAGA displayed a TetR repression strength of 0.113.

Regarding TCCCTAGTAGTGTGGGAGA, the TetR repression strength was found to be 0.216.

In turn, TCCCTTCTAGTGGAGGAGA yielded a TetR repression strength of 0.205.

For the sequence TCCCTCTAAGTAATAGAGA, the TetR repression strength was 0.472.

The record behind these values is a collection of fitness landscapes (doi:10.1038/s41467-024-54723-y).
